# From the supplement of paper PMC11417369
# ± gives the standard deviation of the averaged measurements. This is one part of the list.
# System: PfAP2-LT AP2 domain (GST-tagged)
# Test: gcPBM binding intensity (ln(normalized median fluorescence intensity)); higher = stronger DNA binding
# In short: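 The binding buffer was 1× PBS containing 1% milk, 0.2 mg/ml BSA, 0.5% salmon testes DNA and 0.03% Triton X-100. In it, GST-tagged P. falciparum DNA-binding domains expressed in E. coli were applied for 1 h to an Agilent 4 × 180k array of primer-extended double-stranded 36-bp intergenic genomic probes plus negative controls. Binding intensity, read with Alexa488 anti-GST antibody and a 488 nm scan, is the highest Masliner-normalised natural-log median intensity across replicate spots of either probe orientation.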
row,Sequence,gcPBM binding intensity (ln)
1,AAAGAAATAAGGTGCACACATATACAGATATATATA [CACACA_site4399],9.4 ± 0.47
2,CTCTTTTTTTGCAAAAGTACAAATGGGGATATATTT [XGTACX_site5813],8.84 ± 0.32
3,GCATTATTTACCACAACACACAAATATTTACCAATC [CACACA_site2669],9.07 ± 0.29
4,TAATTTCATCATATTTGTTCCTTCTCAAAATTTTTT [CACACA_negctrl_site217],8.56 ± 0.57
5,TTCCTAAGAATAATCAGTACACATAAAAAGAACATA [XGTACX_site7861],8.69 ± 0.38
6,ACTATATATTTAATATGTACACATATTTCTGTCGAT [XGTACX_site6878],9.09 ± 0.42
7,ATAATTATCATAGGATGTACATATTTATTTTGTATA [XGTACX_site7797],8.79 ± 0.38
8,ATATGTTAAATTATTCGTACGTAAAAAAAAATGGAT [XGTACX_site3465],8.81 ± 0.37
9,AAAAAGGGTATTATTACACACACGTAAATATTAATA [CACACA_site101],9.14 ± 0.44
10,AGATTTATACAAATATGTACACACTAAATATATATT [XGTACX_site864],8.96 ± 0.4
11,CTTTTTTTAATATGCACACATATATTTTATATATTA [CACACA_site2077],8.9 ± 0.42
12,ATTAGGATATATTAAAGTACTAATATAATACATTTT [XGTACX_site7386],8.61 ± 0.45
13,TATTCATTTATAAGCTGTACACATTAATTTGAGCTA [XGTACX_site3616],8.73 ± 0.36
14,ATATAGTATTAATTTGCATGTCATGTATTAGGTCGA [TGCATGCA_site540],8.78 ± 0.4
15,TGTAAGTTGATATAATGTACATGTTTGATTTTTTTT [XGTACX_site7687],8.71 ± 0.47
16,TTTTATATTTTTTGTGGTACATTTAGAGAACCAAAA [XGTACX_site1695],8.12 ± 0.4
17,TTTATAAACAAATGAACACACAAACATATATATATA [CACACA_site5713],9.33 ± 0.24
18,CTATTATAATATTTTACACACCATGTAAGATATATA [CACACA_site7492],8.74 ± 0.43
19,TTTATTTTATCATTTGCACACGCACCCAGACATAAA [CACACA_site4347],9.19 ± 0.35
20,TTTTTTCATTAGAAAACATGCAAATGTTTTTCACTT [TGCATGCA_site127],8.48 ± 0.54
21,TAACTAAGGAATAATACACACAGAAATATAGATTTA [CACACA_site6293],9.04 ± 0.43
22,TCTATTTTCTTATGAATGCACTAATTTATAAAACGT,8.54 ± 0.49
23,CAACAAAAATTATTTACACACAAAAGGCAAGGAAAT [CACACA_site1971],9.27 ± 0.35

row,Sequence,gcPBM binding intensity (ln)
1,TAGTTATTTATATACACACACATACAGACAAATAAA [CACACA_site7577],9.43 ± 0.29
2,TCTTAGATTATTTATTGTACTTATGCTTAAAAAATT [XGTACX_site3639],8.37 ± 0.46
3,GTCCAATAAGGAAGAGTGCAAAAATTAAATAATATA [GTGCAC_site9751],8.88 ± 0.58
4,CATGTAATATTAAACACACACTCATATAACACAATA [CACACA_site65],9.38 ± 0.21
5,ATATATATTTATATATATATATATATATATATGTAT [GTGCAC_negctrl_site220],9.38 ± 0.15
6,AAAGAAAAAAAAAACACACACACACGCATTCAATAT [CACACA_site6169],10.1 ± 0.13
7,GAAAAAAAAGAAAAAACACACATATGATATATTTAT [CACACA_site1524],8.78 ± 0.48
8,ATATTTTCTTTTTAAAGTACATATTTGATTACAATA [XGTACX_site8414],8.49 ± 0.45
9,ATATATATATATATATGTACATATTTTTAATTATAA [XGTACX_site7444],9.33 ± 0.042
10,TAAAAAACAAAACAGGTGCTATATAATTTTCATTTT,8.57 ± 0.48
11,TCTATATATAAATATAAATATATATATATAATGTTA [TGCATGCA_negctrl_site92],8.37 ± 0.48
12,ATAGAATAATATTGTAGTACTAAAAATATTCATTTT [XGTACX_site6447],8.64 ± 0.45
13,ATTATAAATTAAAATACACACATATATACATAATAT [CACACA_site7337],8.92 ± 0.4
14,AAGTATATACATATATGTACACATTGTCAGATAGAA [XGTACX_site1236],8.97 ± 0.39
15,TCTTTTTGTTCGTGTACACACATGAAATTTATAAAA [CACACA_site1619],8.81 ± 0.35
16,TTGTTTCTTAAATTATTTATTTTATATTAAAAAAAA [XGTACX_negctrl_site224],7.96 ± 0.42
17,AAGAAAATGAAAAAGTAAAAACATATATTAAATATA [TGCATGCA_negctrl_site123],8.61 ± 0.51
18,TCGTAGTTACTATGGCAAGAAAATAAACGGTCTTGT [GTGCAC_negctrl_site684],8.91 ± 0.42
19,ATTCGTAGTTTTATGAATTAATATAATAAAAATTAA [XGTACX_negctrl_site181],8.34 ± 0.36
20,TAATAATATATATGAAGTACAATAACTTTTTGTTTT [XGTACX_site292],8.52 ± 0.49
21,TTTATATGTATTAAGTGTACACATATAATCTATCTT [XGTACX_site4922],8.86 ± 0.52
22,GTCAAATTTTTGTGCACACATATATAGTTATTATTA [CACACA_site2241],9.33 ± 0.54
23,TTTCTTTTCTCAGAAATTATTCAAATGAAAAAAAAT [TGCATGCA_negctrl_site44],7.99 ± 0.44

row,Sequence,gcPBM binding intensity (ln)
1,AAAATACACGCATACACACACACACCCACCCATATA [CACACA_site639],10.4 ± 0.14
2,TTACATATGGTTAGTAGTACATATATAAATGTAAAT [XGTACX_site7206],8.89 ± 0.64
3,AAAAAAAAAAAAAAAACACACACATACACCCAAAAA [CACACA_site7910],9.78 ± 0.23
4,TTTATAAAAATATACACACATACAAATATGCATATA [CACACA_site712],8.85 ± 0.32
5,GAAAAAAGGAAATAAAGAAAAAAAAAAATGAAATAT [XGTACX_negctrl_site318],8.64 ± 0.54
6,GTCATAAAAACATATACACACTTGAAATATAAAAAT [CACACA_site5315],9.12 ± 0.4
7,AAACATGATTATTATAGTACAATTATAATTATTATA [XGTACX_site2590],8.54 ± 0.4
8,GTATACACATATATATGTACTTAATTATTTTATGTC [XGTACX_site6707],9.01 ± 0.31
9,CAAAGGGAAATTAACACACACATATATATATATATA [CACACA_site2453],10.3 ± 0.2
10,CTGTTTAAAATATAAACACACATTGTTTGCTTTAGA [CACACA_site1301],8.71 ± 0.4
11,ATTTTTTTACTGCAACCATATTTTTCCCTTTTATTC [CACACA_negctrl_site1282],8.89 ± 0.51
12,AAATAAAATTATAACTGTACGTTGTATGAAATAATG [XGTACX_site5462],8.79 ± 0.45
13,TGTATATATATATAAAGTACATATAATATATATTTG [XGTACX_site5411],8.68 ± 0.4
14,GTGTACATAGGTATAGCACACACAAATGTAGGTATT [CACACA_site9339],9.42 ± 0.34
15,TCTATAAAGTTCCATACATGCGCCATCATTTATATT [TGCATGCA_site195],9.36 ± 0.45
16,ATTATAATTATTTTGTTGCACTATTTTTGTAGGCCA [GTGCAC_site9734],8.8 ± 0.49
17,GAATACACCACGCACACACACTTGAGAAAAAATAAA [CACACA_site7747],9.66 ± 0.47
18,ATTTTTTTCCTAATGGTGCGAATAAATATCCATACC,8.79 ± 0.47
19,TTAACAGTAAAACACAGTACATATATACTTAAAACA [XGTACX_site1930],8.88 ± 0.46
20,AAAGCTTACATATACACACATACATAAATTCATAAA [CACACA_site2469],9.09 ± 0.42
21,TTTTTTTATTATACTAGTACATATATATACAGCACA [XGTACX_site3464],8.76 ± 0.45
22,AAAAAAAAAAAAGGAACACACAAGTAACAATAAATT [CACACA_site2481],9.09 ± 0.55
23,ATACTAAAGAAACACACACACATATATATATAGAAT [CACACA_site100],9.94 ± 0.28

row,Sequence,gcPBM binding intensity (ln)
1,TTTACACCCTAAAAATGTACAAGAAAGATTATATTA [XGTACX_site1102],8.5 ± 0.47
2,GAGAAATGGGGACACACACACATATTATAGATATAT [CACACA_site6829],9.76 ± 0.38
3,TTGTTTGATATCTTTGTCACGAAAAAAATATATATA [GTGCAC_negctrl_site54],8.25 ± 0.41
4,TAAGGATAAAATAAATGTACATATGTAAAATTATTA [XGTACX_site4170],8.99 ± 0.5
5,TAATCTCATAAAACCGCACACACATAAAATTTGCAT [CACACA_site3890],9.4 ± 0.36
6,TTTTTAATAATCTCTCAAAATGTTCTTATATTTTAC [CACACA_negctrl_site1691],8.43 ± 0.52
7,ATAATTTTGATTATCACACATATATATATATATATG [CACACA_site5882],8.99 ± 0.42
8,ATATATTTCCTGAGGAGTACTATGAAAGACAAAAAA [XGTACX_site5628],8.66 ± 0.43
9,TAAGAAAAAAGTAAATGTACAGAGAAAATTATCTAT [XGTACX_site7374],8.76 ± 0.54
10,ATTTATTACAAATGAATGCACTATATCTTAATTTTG,8.57 ± 0.53
11,ACATATATATAAAGGTGTACACATATATATATATAT [XGTACX_site4779],9.87 ± 0.13
12,GATTTTTAAAATATCACACATAAAAAAAAAAAAAAA [CACACA_site5516],8.32 ± 0.44
13,AAAAAAATTCTGACTTGTACATATAAAATTTACAAA [XGTACX_site4408],8.23 ± 0.47
14,TTTGTCATTTTATTATGTACTCAGCATATAGGGGGG [XGTACX_site505],10.3 ± 0.33
15,TAATTTAATAATTAGACACACATGTGGAAAATAAAA [CACACA_site5401],9.15 ± 0.4
16,ACATATTTATATATGTGTACATAAATATTCTTTTAA [XGTACX_site8238],8.69 ± 0.42
17,ATAAAAAAATCAGACACACACACGTAAACCCATACA [CACACA_site2773],9.925 ± 0.064
18,ATTTATTTTTTTATCACACATTTGTGAAATGTGCAT [CACACA_site5869],8.96 ± 0.4
19,ATATTAAGGTTTATATTTTAACTTATTATTTTATTC [CACACA_negctrl_site795],8.7 ± 0.49
20,ATATATTCAATTCATACACACACAATTTAAGAATGA [CACACA_site9289],9.2 ± 0.4
